Measured values as given in PubChem BioAssay AID1159614 (National Center for Advancing Translational Sciences (NCATS), 2016).
The campaign covered roughly 45,000 compounds. About 65 (0.1%) were called active. The call rests on the fitted dose curve; in most records, active means well fitted activation curve with a large enough effect; inconclusive means small, poorly fitted or top-dose-only effect; inactive means no such curve, though single readings can be large or run the other way. Some of the results follow.

Each molecule was assayed against Galactocerebrosidase (Homo sapiens) (UniProt P54803) (assay: A Novel Cell-Based Assay to Identify Small Molecules for B -Galactocerebrosidase). Details: 145M-Twi-hGALC-G270D cells (Twitcher mouse brain line with human GALC G270D), HMU-beta-Gal fluorescence, 48 h; series mostly up to 57.5 µM; activation: at the top concentration.
Chain of UniProt P54803 (P54803 whole entry, looked up): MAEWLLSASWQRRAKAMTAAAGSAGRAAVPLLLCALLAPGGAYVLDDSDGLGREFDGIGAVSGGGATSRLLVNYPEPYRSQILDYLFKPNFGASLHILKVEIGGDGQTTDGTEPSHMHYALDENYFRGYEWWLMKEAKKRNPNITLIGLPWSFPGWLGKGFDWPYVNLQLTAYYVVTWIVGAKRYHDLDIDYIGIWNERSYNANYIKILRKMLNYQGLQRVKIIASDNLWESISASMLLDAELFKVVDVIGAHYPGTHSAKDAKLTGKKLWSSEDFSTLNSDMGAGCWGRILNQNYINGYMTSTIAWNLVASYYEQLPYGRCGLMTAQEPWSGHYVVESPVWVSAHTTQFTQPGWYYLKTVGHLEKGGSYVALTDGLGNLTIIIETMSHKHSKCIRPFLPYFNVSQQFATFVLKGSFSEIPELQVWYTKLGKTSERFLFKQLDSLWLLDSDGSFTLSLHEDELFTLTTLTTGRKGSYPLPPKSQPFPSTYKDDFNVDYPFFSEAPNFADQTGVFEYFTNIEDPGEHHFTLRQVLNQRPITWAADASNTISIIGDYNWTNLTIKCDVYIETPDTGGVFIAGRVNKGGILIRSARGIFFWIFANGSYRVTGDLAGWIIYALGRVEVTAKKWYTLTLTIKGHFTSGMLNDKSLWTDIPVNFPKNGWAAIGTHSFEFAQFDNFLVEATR
In short: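 Mutant human GALC (G270D), stably expressed in a Twitcher mouse brain cell line lacking endogenous GALC, is measured in live-treated cells via 6-hexadecanoylamino-4-methylumbelliferyl-β-galactoside hydrolysis (0.1 mM final, pH 5.2) with fluorescent detection.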
Further: 0% is about no effect; nearly all actives have a fitted effect of over 65% in size.

activation, inactive:
O=C(Nc1cccc(F)c1)C1CCN(c2nc3ccccc3[nH]2)CC1 -11.5%
Cc1cccc(-n2ccnc2SCC(=O)Nc2ccc3c(c2)OCO3)c1 -12.2%
CCc1cccc(NC(=O)CCS(=O)(=O)c2ccc3nc(C)sc3c2)c1 -5.05%
CCc1ccc(-n2nc(C)c3c(C)cc(=O)n(CC(=O)Nc4ccccc4C(=O)OC)c32)cc1 -14.8%
CSCCC(NS(=O)(=O)c1ccc2c(c1)oc(=O)n2C)C(=O)N1CCN(c2ccc(F)cc2)CC1 (stereo unspecified) -20%
CCCCOc1ccc(C(=O)N/C(=C\c2ccc(Br)cc2)C(=O)NC2CCCCC2)cc1 -1.59%
COc1ccc(CNc2ncnc3c2cnn3-c2ccc(C)c(C)c2)cc1 -13%
COc1ccc(CN2C(=O)c3oc4ccccc4c(=O)c3C2c2ccc(O)c(OC)c2)cc1 (stereo unspecified) -6.31%
Cc1csc2nc(CCNS(=O)(=O)c3ccc(F)cc3)cn12 -7.1%
CCCCSCCCNC(=O)C1CCC(CNS(=O)(=O)c2c(C)cc(C)cc2C)CC1 (stereo unspecified) -3.2%
CCOc1ccc(CNC(=O)c2ccc3c(c2)nc2n3CCC(C)C2)cc1OC (stereo unspecified) -11%
COc1cccc(C(=O)NC2CC(=O)N(c3ccc4c(c3)OCCO4)C2)c1OC (stereo unspecified) -7.16%
CN1CCc2nc3sc(C(=O)Nc4ccccc4C(F)(F)F)c(N)c3cc2C1 -22.2%
COc1ccccc1Cc1nc2ccccc2nc1SCC(=O)NCc1ccccc1Cl -15.1%
CCOc1ccc(-n2nc3ccc(NC(=O)c4ccc(-c5cccc(Cl)c5)o4)cc3n2)cc1 -19.2%
Cc1ccc2c(=O)c(C(=O)c3cccc(Cl)c3)cn(CC(=O)Nc3ccccc3C(F)(F)F)c2n1 -11%
CC1=C(C(=O)OC2CCCCCC2)C(c2cccc(Cl)c2)CC(=O)N1 (stereo unspecified) 1.07%
CCCC1=Nc2cc(C(=O)N3CCC(C)CC3)ccc2Sc2ccc(C)cc21 18.3%
COc1ccccc1C(=O)OCc1cc(=O)n2nc(C(C)C)sc2n1 -4.42%
CC1CCCCN1CCCNC(=O)c1cc(Sc2ccc(Cl)cc2)nc2ccccc12 (stereo unspecified) -10.4%
CCOC(=O)CC(=O)CSc1nc2ccccc2c(=O)n1CCc1ccc(S(N)(=O)=O)cc1 -4.35%
COc1ccccc1CNC(=O)c1oc2ccc3c(c2c1C)C(=O)CC(C)(C)O3 -2.02%
COc1ccc(-c2noc(-c3ccc(NCC4CCCO4)c([N+](=O)[O-])c3)n2)cc1OC (stereo unspecified) -7.44%
CC(=O)Nc1ccc(NC(=O)CCS(=O)(=O)c2ccc3c(c2)CC(=O)N3C)cc1 4.74%
CC1=Nc2cc(C(=O)NCCc3ccc(Cl)cc3)ccc2Sc2c(C)ccc(C)c21 -16.2%
CCOC(=O)N1CCc2c(sc3c2C(=O)NC(c2ccccc2F)N3)C1 (stereo unspecified) -9.22%
CCN1C(=O)C(Cc2nc3ccccc3c(=O)n2-c2ccc(OC)cc2)c2ccccc21 (stereo unspecified) -13.8%
COc1ccc(N2CC(NC(=O)COc3ccc4ccccc4c3)CC2=O)cc1OC (stereo unspecified) 2.14%
CCOC(=O)C1CCC(CN(Cc2cccc(Br)c2)S(=O)(=O)c2ccc(Cl)cc2)CC1 (stereo unspecified) -4.25%
COc1ccc(NC(=O)Cn2cc(S(=O)(=O)Cc3ccc(F)cc3)c3ccccc32)cc1OC -17.8%
COc1ccc(NC(=O)c2cnc(N3CCCCC3)c3ccccc23)cc1Cl -11.9%
CCN(CC)c1ccc(-c2nc(-c3ccco3)no2)cc1[N+](=O)[O-] -28.8%
CCC(C)NC(=O)c1sc2nc(C)c(C(=O)Nc3ccc(C)cc3C)c(-c3ccccc3Cl)c2c1N (stereo unspecified) -7.55%
CCCCC1CCC(C(=O)N2CC(=O)Nc3ccc(Cl)cc3C2c2ccc(F)cc2)CC1 (stereo unspecified) -24.8%
COc1ccccc1CNc1nccn(-c2ccccc2)c1=O 19.2%
Cc1ccc(-n2c(=O)c3c4c(sc3n(CC(=O)Nc3ccccc3C)c2=O)CCCCC4)cc1C 0.567%
Cc1ccc(CNC(=O)Cn2c(=O)n(Cc3ccc(F)cc3)c(=O)c3sc4ccccc4c32)cc1 -13.6%
Cn1cc(S(=O)(=O)N2CCCCC2)cc1C(=O)Nc1cccc(C#N)c1 -16.1%
Cc1ccc(CCNC(=O)c2ccc3c(=O)n(-c4ccccc4)c(=O)[nH]c3c2)cc1 -15.6%
CCOC(=O)c1cccc2c1N[C@@H](c1ccc(F)cc1)[C@H]1CC=C[C@@H]21 -5.07%
CCCN(C(=O)Cn1ncc2c([nH]c3ccc(C)cc32)c1=O)c1ccccc1C -8.55%
CCC(C)NC(=O)CN1C(=O)COc2ccc(S(=O)(=O)N3CCOCC3)cc21 (stereo unspecified) 21.4%
CCOc1ccccc1NC(=O)c1c(NCc2sccc2C)sc2c1CCC(C)C2 (stereo unspecified) -13.1%
COc1cccc(N2CC(NC(=O)/C=C\c3ccc(OC)c(OC)c3)CC2=O)c1 (stereo unspecified) -16.3%
O=C(Nc1ccc(Cl)cc1)N1CCC(c2ccccc2)C1 (stereo unspecified) -6.75%
O=C(CCCCC(=O)Nc1c(I)cc(I)c(C(=O)O)c1I)Nc1c(I)cc(I)c(C(=O)O)c1I -12.9%
Cn1c(Oc2ccc(Cl)cc2)nc2c1c(=O)n(Cc1ccc(F)cc1)c(=O)n2C -13.8%
O=C(NCCc1ccccc1)c1ccc2c(c1)N(Cc1ccc(F)cc1)C(=O)c1ccccc1S2 -11.8%
COc1ccc(C(=O)NC(c2ccc(Cl)cc2)c2cc(Cl)c3cccnc3c2O)cc1 (stereo unspecified) -9.88%
CCCCSc1nnc2c(n1)OC(C)N(C(C)=O)c1ccccc1-2 (stereo unspecified) -11.2%
CCc1ccccc1NC(=O)CC1Sc2ccc(C(F)(F)F)cc2NC1=O (stereo unspecified) 0.186%
COc1ccc(CCNC(=O)Cc2c(C)c3cc4c(C)coc4c(C)c3oc2=O)cc1 4.81%
COc1ccc(CCNC(=O)C2COc3ccccc3C2)cc1OC (stereo unspecified) -21.7%
COc1cc(Cl)c(C)cc1NC(=O)c1cnc(N2CCOCC2)c2ccccc12 2.81%
Cc1cc(C)cc(NC(=O)CCC(=O)N2CCSc3ccccc32)c1 -7.97%
Cc1ccc(NC(=O)CN2C(=O)CC(C)Sc3ccccc32)c(C)c1 (stereo unspecified) 5.7%
CCOC(=O)c1cccc(NS(=O)(=O)c2cc3c(cc2C)NC(=O)CO3)c1 -17.4%
O=C(c1ccc(Nc2nc3ccccc3n3nnnc23)cc1)N1CCN(c2cccc(C(F)(F)F)c2)CC1 -5.48%
Cc1ccc(C)c(NS(=O)(=O)c2cc3c4c(c2)C(C)C(=O)N4CCC3)c1 (stereo unspecified) -10.8%
Cc1cccn2c(=O)c3cc(C(=O)Nc4ccc(Cl)c(Cl)c4)sc3nc12 -12%
Cc1ccc(S(=O)(=O)NCCc2csc(-c3cccc(F)c3)n2)cc1 -14.7%
